Assay results published in article PMC4336329 (PLoS ONE, 2015).
Among all 310,000 compounds or so, about 2,200 (0.71%) showed an effect of 50% or more. The effect is printed as a negative number. Some of the results follow.

Target: human ether-à-go-go-related gene (hERG) potassium channel (human, UniProt Q12809)
Assay: primary screen, population patch clamp on CHO cells stably expressing hERG

Sequence of human ether-à-go-go-related gene (hERG) potassium channel (Q12809 whole entry, looked up): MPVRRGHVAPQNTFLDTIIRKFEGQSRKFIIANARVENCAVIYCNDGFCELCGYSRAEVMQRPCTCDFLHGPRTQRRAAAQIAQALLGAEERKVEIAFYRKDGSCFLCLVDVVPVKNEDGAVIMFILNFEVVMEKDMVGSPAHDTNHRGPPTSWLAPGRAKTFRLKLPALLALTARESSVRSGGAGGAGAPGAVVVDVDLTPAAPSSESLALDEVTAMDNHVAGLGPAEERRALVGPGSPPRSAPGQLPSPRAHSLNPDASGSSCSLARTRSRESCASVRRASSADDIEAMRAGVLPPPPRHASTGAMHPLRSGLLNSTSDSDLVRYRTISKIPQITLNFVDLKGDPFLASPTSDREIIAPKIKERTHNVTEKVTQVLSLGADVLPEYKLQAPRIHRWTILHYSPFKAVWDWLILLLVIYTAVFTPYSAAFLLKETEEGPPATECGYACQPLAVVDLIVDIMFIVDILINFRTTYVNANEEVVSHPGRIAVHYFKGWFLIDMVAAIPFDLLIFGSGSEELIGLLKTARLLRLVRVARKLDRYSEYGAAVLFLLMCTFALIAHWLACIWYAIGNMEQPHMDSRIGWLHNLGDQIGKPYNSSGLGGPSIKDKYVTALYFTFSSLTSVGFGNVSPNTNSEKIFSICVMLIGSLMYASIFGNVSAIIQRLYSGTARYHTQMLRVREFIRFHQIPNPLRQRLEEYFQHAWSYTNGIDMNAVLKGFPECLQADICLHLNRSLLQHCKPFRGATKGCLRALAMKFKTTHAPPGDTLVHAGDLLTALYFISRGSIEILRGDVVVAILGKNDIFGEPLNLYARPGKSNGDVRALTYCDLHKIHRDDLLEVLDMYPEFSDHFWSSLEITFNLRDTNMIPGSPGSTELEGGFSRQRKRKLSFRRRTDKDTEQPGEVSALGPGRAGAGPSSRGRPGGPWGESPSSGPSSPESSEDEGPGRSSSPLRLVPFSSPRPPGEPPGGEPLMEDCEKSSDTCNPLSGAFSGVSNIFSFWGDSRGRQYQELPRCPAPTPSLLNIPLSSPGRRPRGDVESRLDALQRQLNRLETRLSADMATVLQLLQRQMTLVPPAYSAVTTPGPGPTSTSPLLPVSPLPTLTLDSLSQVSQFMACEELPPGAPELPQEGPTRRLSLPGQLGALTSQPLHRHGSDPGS

Structure (SMILES)	hERG current change (%, negative = inhibition) at 1uM
COc1cccc(OC)c1C(=O)Nc1nc(N)n(-c2ccccc2)n1	1.1%
Cc1cccc(NC(=O)Nc2ccc(Cl)cc2)n1	13.4%
Cc1ccnc2nc(C(=O)OCC(=O)Nc3ccccc3C(C)(C)C)nn12	5.47%
COc1ccc(NC(=O)C/C(C)=N/NC(=O)C(=O)NC2CCCCC2)c(OC)c1	-3.65%
CCCOc1ccc(C2c3c(oc4cc(C)c(C)cc4c3=O)C(=O)N2CCCN(C)C)cc1OCC (stereo not shown)	11.1%
CCCC(C(=O)NC1CCCC1)N(CCN(CC)CC)C(=O)c1snc(C(N)=O)c1N (stereo not shown)	12.7%
CC(C)C[C@H](NC(=O)c1ccc(OC2CCN(C(=O)C3CC3)CC2)cc1)C(N)=O	3.54%
CC1CCC/C(=C\Nc2ccc(O)cc2)C1=O (stereo not shown)	0.838%
CCOC(=O)CSc1nnc(Cc2cc(=O)[nH]c(=O)[nH]2)n1-c1cccc(OC)c1	7.12%
O=C1CC(c2ccc(S(=O)(=O)Nc3cc(C(F)(F)F)cc(C(F)(F)F)c3)cc2)CN1 (stereo not shown)	2.49%
CCC(C)(C)NC(=O)C(c1cccn1C)N(C(=O)Cn1nnc2ccccc21)c1ccc(F)cc1 (stereo not shown)	8.33%
O=C(Nc1ccc(NC(=O)c2cccs2)cc1Cl)c1ccco1	14.1%
CC(C)Oc1ccc(C(CC(=O)O)NC(=O)C(Sc2ccccc2)c2ccccc2)cc1 (stereo not shown)	4.79%
N/C(COc1ccc(C(=O)O)cc1)=N\O	-0.766%
CCCC(C(=O)NCC1CCCO1)N(Cc1ccco1)C(=O)CNS(=O)(=O)c1ccc(F)cc1 (stereo not shown)	3.14%
CN(C)S(=O)(=O)c1cccc(NC(=O)COC(=O)CCSc2ccc(Cl)cc2)c1	-0.613%
CCCN1CCN(CCCNC(=O)C(CC)n2nc(C)n3c(cc4occc43)c2=O)CC1 (stereo not shown)	14.1%
COc1cc(C(c2sc3nc(C)nn3c2O)N2CCN(c3ccccc3)CC2)cc(OC)c1OC (stereo not shown)	9.63%
Cc1cccc(C)c1C(=NCCN(C)C)c1ccccc1.Cl	-2.42%
C[C@H]1C=C(C(=O)NCc2nc3ccccc3[nH]2)O[C@@H](OCCCCO)C1	11%
O=C(CN(C(=O)CNC(=O)c1ccco1)c1cccc(F)c1)NC1CCCCC1	9.91%
CC(C)=C(NC(=O)c1ccccc1)C(=O)N/N=C(\C)c1ccccc1O	18.7%

Structure (SMILES)	hERG current change (%, negative = inhibition) at 1uM
O=[N+]([O-])CC(=Nc1ccc(F)cc1)N/N=C\c1oc(O)c2ccccc12	10.3%
Cc1ccc(S(=O)(=O)N2CCC(C(=O)N3CCN(c4ccccn4)CC3)CC2)cc1	-4.27%
Cc1cc(C)c2oc(C(=O)N(Cc3cccs3)C3CCS(=O)(=O)C3)cc(=O)c2c1 (stereo not shown)	11.1%
O=C(CNC(=O)c1ccco1)N/N=C/c1cccs1	13.7%
CN(C)C(=S)NC(C)(C)C	4.37%
Cc1cc2[nH]c(=O)c(=O)[nH]c2cc1S(=O)(=O)N(C)C1CCCCC1	12.1%
Cc1c(C(=O)N(CC(C)C)c2c(N)n(Cc3ccccc3)c(=O)[nH]c2=O)sc2nc3n(c(=O)c12)CCC3	11.2%
C=CCn1c(SCC(=O)N(CC)C2CCS(=O)(=O)C2)nc2ccccc2c1=O (stereo not shown)	-81.6%
COCCNC(=O)C(=O)NNC(=O)CCc1ccccc1	9.47%
CCNC(=S)N=Nc1c(O)[nH]c2ccc([N+](=O)[O-])cc12	1.97%
Clc1cccc(/C(Cc2nc3ccccc3[nH]2)=N\Nc2ccccc2)c1	9.34%
CCc1ccc(C(=O)COC(=O)C(CCSC)NC(=O)C23CC4CC(CC(C4)C2)C3)cc1 (stereo not shown)	14.1%
COc1ccccc1CNC(=O)COC(=O)c1ccc(Cl)c(N)c1	10.7%
Nc1nnc(SCC(=O)OCc2ccccc2)s1	14.4%
CCCCCCC[C@H](N)[C@H](O)C(=O)N(C)[C@@H](CCS(C)=O)C(=O)N[C@@H](Cc1ccc(O)cc1)C(=O)N[C@@H](Cc1ccc(O)cc1)C(=O)O (stereo partly shown)	10.9%
CCCCCN(C(=O)CCC(=O)OCC(=O)c1cccc(OC)c1)c1c(N)n(CCCC)c(=O)[nH]c1=O	-23.1%
Cc1cc(C(=O)Cn2nnc3ccccc3c2=O)c(C)n1-c1c(C)n(C)n(-c2ccccc2)c1=O	13.5%
Cc1cccc2c1OCC/C2=N\NC(=O)COc1ccccc1Cl	10.6%
COCCCNC(=O)CN1CCN(Cc2ccccc2Cl)C1=O	27%
CCOC(=O)c1ccc(OCc2nc(-c3cccs3)no2)cc1	7.51%
Cc1ccc(C(=O)Nc2nc3ccccc3c(=O)s2)cc1	15.3%
CN1c2ccc([N+](=O)[O-])cc2CC2(C(=O)NC(=O)NC2=O)C1c1ccccc1 (stereo not shown)	11.1%

Structure (SMILES)	hERG current change (%, negative = inhibition) at 1uM
Cc1noc(C)c1COC(=O)c1ccc2c(c1)OCCO2	4.74%
COCCn1c(SCC(=O)NCc2ccco2)nnc1C(C)C	16.3%
COc1ccc(C2/C(=C(/O)c3ccccc3)C(=O)C(=O)N2CCO)cc1 (stereo not shown)	-4.86%
COCCn1c(CN2CCN(c3cccc(Cl)c3)CC2)nc2c1c(=O)n(C)c(=O)n2C	-28.3%
Cc1cc(COc2ccccc2OCc2cc(C)no2)on1	16.8%
CCCNC(=O)N1CCN(c2ncccn2)CC1	3.29%
CCOC(=O)N1CCN(c2c(Nc3cc(C)[nH]n3)c(=O)c2=O)CC1	13.1%
Cc1c(C(=O)N2CCCCC2)c(S(=O)(=O)NCc2ccc(F)cc2)c(C)n1C	6.37%
O=C(CCc1nc2sc3c(c2c(=O)[nH]1)CCCC3)NCCc1ccccc1	10.4%
CSc1ccc(/C=N/N2CCN(c3ccccc3)CC2)cc1	-13.3%
CCOc1ccc(NC(=O)c2ccc(-c3csc(C)n3)cc2)cc1	15.4%
CC[n+]1c(/C=C/N(C)c2ccccc2)sc2ccc(Cl)cc21.[O-][Cl+3]([O-])([O-])[O-]	-24.4%
C=CCn1c(=O)c2ccccc2n2c(SCC(=O)c3ccccc3)nnc12	7.16%
Cc1ccccc1-n1nc2c(c1NC(=O)C(C)(C)C)CS(=O)(=O)C2	14.8%
Cc1cccc(NC(=O)NCCCCc2ccccc2)c1	7.23%
CCCCn1c(SCC(=O)N2CCCC2)nc2c1c(=O)n(C)c(=O)n2C	-6.17%
CCc1ccc(CSc2nccn2-c2ccccc2)cc1	8.1%
COc1ccc(S(=O)(=O)N2CCCCCC2)cc1NC(=O)c1ccccc1	15.5%
CC(=O)Nc1ccc(OCCCNC(=O)c2c(-c3ccccc3)noc2C)cc1	22.9%
COCCNC(=O)C1CCN(S(=O)(=O)c2c(C)noc2/C=C/c2cccs2)CC1	-10.8%
O=C(NCCS(=O)CCNC(=O)C(F)(F)F)C(F)(F)F	14.8%
Cc1ccc(CSCCNC(=O)CCSc2ccccc2)cc1	-5.65%

Structure (SMILES)	hERG current change (%, negative = inhibition) at 1uM
CN(C)C(=S)Nc1ccc2ccccc2c1	20.6%
COC(=O)c1ccc(NC(=O)C(=O)N2CCN(C(=S)Nc3ccc(C)cc3)CC2)cc1	12.6%
C/C(=N\N=C1\NC(=O)C(CC(=O)Nc2ccc(Cl)cc2)S1)c1ccco1 (stereo not shown)	2.05%
COc1ccccc1CC(=O)O/N=C(\N)c1cccc([N+](=O)[O-])c1	6.87%
CN(CC(=O)Nc1ccccc1Cl)C(=O)COC(=O)c1cnccn1	9.8%
CCS(=O)(=O)C1=NSC2=NC(=O)/C(=C\c3ccc(OS(=O)(=O)c4ccccc4)cc3)C(=N)N21	23.2%
COc1cccc(Nc2nc(-c3ccc4c(c3)OCCO4)cs2)c1	6.03%
COc1cccc(CNC(=O)C2CCN(S(=O)(=O)c3ccc4c(c3)CC(C)N4C(C)=O)CC2)c1 (stereo not shown)	4.71%
CC(C)(C)OC(=O)N1CCN(C(=O)c2[nH]cnc2C(=O)Nc2nccs2)CC1	4.3%
COc1ccc(OC)c(NC(=O)Cn2c(CCC(=O)O)ccc2-c2ccccc2)c1	-3.62%
CN=C(c1ccc([N+](=O)[O-])cc1)N1CCCCC1	9.55%
COc1ccc(CC(NC(C)=O)C(=O)NC2CCN(c3c4c(nc5ncnn35)CCC4)CC2)cc1 (stereo not shown)	12%
CCOc1ccc(S(=O)(=O)NCCC(=O)N(CC)CC(=O)Nc2c(F)cccc2F)cc1	5.53%
CCn1ccnc1CN(C)Cc1nc(-c2ccccc2)no1	3.14%
C/C=C/C=N/NC(=O)CN(c1ccc(Br)cc1)S(=O)(=O)c1ccccc1	7.6%
Cc1ccc(C(=O)O[C@H](C(=O)O)[C@H](OC(=O)c2ccc(C)cc2)C(=O)O)cc1	6.56%
Cc1sc2ncnc(SCc3ccco3)c2c1C	8.64%
COc1ccc(S(=O)(=O)Nc2ccc(F)c(F)c2)cc1Cl	15.8%
CCOc1ccc(N2CC(C(=O)N3CCCc4ccccc43)CC2=O)cc1 (stereo not shown)	-31.4%
